From PubChem BioAssay (NCI)
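Cells were grown in 96-well plates and exposed to each compound for 48 hours at five concentrations; endpoints were interpolated linearly between bracketing concentrations, or set to the highest concentration if not reached. GI50 is the concentration that inhibits growth by half.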 Not every entry of the source has a single result; some have several. The other results are left out here. The source may hold further records. For some assays here: The tests behind the records often covered other concentration ranges, not given here; some values may only mark the edge of a range. A tag in brackets gives the origin of a value. A, B and so on number the origins entry by entry. For some assays here: Values given together are repeats (runs, samples, wells, individuals or studies).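 TGI is the concentration that stops growth completely.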

Experiments:
Experiment in all cases: NCI anticancer screen, dose series, 48 h
SNB-78 CNS = system: SNB-78 CNS
SK-MEL-28 melanoma = system: SK-MEL-28 melanoma
OVCAR-8 ovarian = system: OVCAR-8 ovarian
SK-OV-3 ovarian = system: SK-OV-3 ovarian
SF-295 CNS = system: SF-295 CNS
SR leukemia = system: SR leukemia
HOP-62 NSCLC = system: HOP-62 NSCLC
SN12C renal = system: SN12C renal
OVCAR-4 ovarian = system: OVCAR-4 ovarian
OVCAR-3 ovarian = system: OVCAR-3 ovarian
SF-268 CNS = system: SF-268 CNS
MOLT-4 leukemia = system: MOLT-4 leukemia
A498 renal = system: A498 renal
IGROV1 ovarian = system: IGROV1 ovarian
COLO 205 colon = system: COLO 205 colon
SF-539 CNS = system: SF-539 CNS
K-562 leukemia = system: K-562 leukemia
M14 melanoma = system: M14 melanoma
EKVX NSCLC = system: EKVX NSCLC
U251 CNS = system: U251 CNS
SW-620 colon = system: SW-620 colon
NCI-H522 lung = system: NCI-H522 lung
CAKI-1 renal = system: CAKI-1 renal

COC(C(=O)C(O)C(C)O)C1Cc2cc3cc(OC4CC(OC(C)=O)C(OC5CC(O)C(OC)C(C)O5)C(C)O4)cc(O)c3c(O)c2C(=O)C1OC1CC(OC2CC(OC3CC(C)(O)C(OC(=O)C(C)C)C(C)O3)C(O)C(C)O2)C(O)C(C)O1 (stereo not given)
GI50 (SNB-78 CNS): 10.1 nM [sample A, mean of 4 tests] and 0.661 nM [sample B, 1 test]
TGI (SNB-78 CNS): 482 nM, 16.1 µM [sample A] and 8.54 nM, 6.23 µM [sample B]
TGI (SK-MEL-28 melanoma): 52.9 nM, 11.5 nM [sample A] and 4.17 nM, 14.7 nM [sample B]
GI50 (OVCAR-8 ovarian): 7.5 nM [sample A, mean of 3 tests] and 59.9 nM [sample A, mean of 5 tests] and 6.03 nM [sample B, 1 test] and < 12.3 nM [sample B, mean of 5 tests]
TGI (OVCAR-8 ovarian): 28.6 nM [sample A, mean of 3 tests] and 744 nM [sample A, mean of 5 tests] and 534 nM [sample B, mean of 5 tests]
TGI (SK-OV-3 ovarian): 282 nM [sample A] and 12.6 µM [sample B]
GI50 (SF-295 CNS): 12.7 nM [sample A, mean of 4 tests] and 126 nM [sample A, mean of 5 tests] and 38.6 nM [sample B, 1 test] and 19.3 nM [sample B, mean of 4 tests]
TGI (SF-295 CNS): 28.8 nM [sample A, mean of 4 tests] and 909 nM [sample A, mean of 5 tests] and 343 nM [sample B, mean of 4 tests]
GI50 (SR leukemia): 42 nM [sample A, mean of 4 tests] and 0.449 nM [sample B, 1 test]
TGI (HOP-62 NSCLC): 19.2 nM [sample A, mean of 4 tests] and 409 nM [sample A, mean of 5 tests] and 45.7 nM [sample B, 1 test]
GI50 (SN12C renal): 11.3 nM [sample A, mean of 3 tests] and 34.9 nM [sample A, mean of 5 tests] and 1.99 nM [sample B, 1 test]
TGI (SN12C renal): 984 nM [sample A, mean of 3 tests] and 502 nM [sample A, mean of 5 tests] and 44.7 nM [sample B, 1 test] and 3.71 µM [sample B, mean of 3 tests]
GI50 (OVCAR-4 ovarian): 10.9 nM [sample A, mean of 3 tests] and 32.8 nM [sample A, mean of 5 tests] and 2.05 nM [sample B, 1 test]
TGI (OVCAR-4 ovarian): 177 nM [sample A, mean of 3 tests] and 171 nM [sample A, mean of 5 tests] and 9.36 nM [sample B, 1 test]
GI50 (OVCAR-3 ovarian): 9.86 nM [sample A, mean of 4 tests] and 29.2 nM [sample A, mean of 6 tests] and 1.12 nM [sample B, 1 test]
TGI (OVCAR-3 ovarian): 27.3 nM [sample A, mean of 4 tests] and 278 nM [sample A, mean of 6 tests] and 4.49 nM [sample B, 1 test] and 774 nM [sample B, mean of 4 tests]
GI50 (SF-268 CNS): 11.1 nM [sample A, mean of 3 tests] and 25.4 nM [sample A, mean of 5 tests] and 0.346 nM, 0.54 nM [sample B, 1 test]
TGI (SF-268 CNS): 334 nM [sample A, mean of 3 tests] and 395 nM [sample A, mean of 5 tests] and 33 nM [sample B, 1 test] and 1.7 µM [sample B, mean of 3 tests]
GI50 (MOLT-4 leukemia): 36.7 nM [sample A, mean of 6 tests] and 2.49 nM [sample B, 1 test]
TGI (A498 renal): 358 nM, 34.5 nM [sample A] and 68.3 nM, 53.6 nM [sample B]
GI50 (IGROV1 ovarian): 13.9 nM [sample A, mean of 2 tests] and 47.4 nM [sample A, mean of 5 tests] and 2.74 nM [sample B, 1 test]
TGI (IGROV1 ovarian): 500 nM [sample A, mean of 2 tests] and 933 nM [sample A, mean of 5 tests] and 39.8 nM [sample B, 1 test] and > 5.3 µM [sample B, mean of 3 tests]
GI50 (COLO 205 colon): 10 nM [sample A, mean of 3 tests] and 23.3 nM [sample A, mean of 4 tests] and 1.12 nM [sample B, 1 test]
TGI (COLO 205 colon): 16.6 nM [sample A, mean of 3 tests] and 61.2 nM [sample A, mean of 4 tests] and 3.1 nM [sample B, 1 test] and 14.9 nM [sample B, mean of 3 tests]
TGI (SF-539 CNS): 43.1 nM [sample A] and 2.65 nM [sample B]
GI50 (K-562 leukemia): 7.5 nM [sample A, mean of 3 tests] and 45.9 nM [sample A, mean of 6 tests] and 2.49 nM [sample B, 1 test] and < 10.4 nM [sample B, mean of 3 tests]
TGI (K-562 leukemia): 1.74 µM [sample A, mean of 3 tests] and 608 nM [sample A, mean of 6 tests] and 48.2 nM [sample B, 1 test] and 1.41 µM [sample B, mean of 3 tests]
GI50 (M14 melanoma): 107 nM [sample A, mean of 6 tests] and 7.97 nM [sample B, 1 test]
TGI (EKVX NSCLC): 305 nM, 100 nM [sample A] and < 24.7 nM [sample B]
GI50 (U251 CNS): 19.2 nM, 63.9 nM [sample A, mean of 4 tests] and 0.37 nM [sample B, 1 test]
TGI (U251 CNS): 567 nM, 1.8 µM [sample A, mean of 4 tests] and 83.3 nM [sample B, 1 test] and 13.7 µM [sample B, mean of 4 tests]
GI50 (SW-620 colon): 49.1 nM, 18.1 nM [sample A, mean of 5 tests] and 2.01 nM [sample B, 1 test]
TGI (NCI-H522 lung): 41.2 nM, 84.7 nM [sample A] and 0.937 nM, 67.1 nM [sample B]
GI50 (CAKI-1 renal): 12.4 nM [sample A, mean of 4 tests] and 335 nM [sample A, mean of 5 tests] and 35.9 nM [sample B, mean of 2 tests]
TGI (CAKI-1 renal): 76.2 nM [mean of 4 tests] and 890 nM [mean of 5 tests]
